This is one part of the list.
Columns and labels:
Test in all cases: glycan array binding signal (z-score within array); higher = stronger binding
Conditions in all cases: glycan notation: IUPAC condensed, linker removed
[1] = biological target: Neu5Ac(a2-6)GlcNAc(b1-4)GlcNAc
Method in brief: (§1)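 The binding signal is a Z-score computed within each array and averaged over linkers. Arrays of the same protein sequence at different concentrations or buffers were also averaged together. Data originate from 3228 arrays in the Consortium for Functional Glycomics database, kept only where the protein sequence was available.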

[2] = biological target: Neu5Ac(a2-6)GlcNAc(b1-4)GlcNAc(b1-4)GlcNAc
Method in brief: as §1

Neu5Ac(a2-8)Neu5Ac = biological target: Neu5Ac(a2-8)Neu5Ac
Method in brief: as §1

[3] = biological target: Neu5Ac(a2-8)Neu5Ac(a2-3)Gal(b1-3)GalNAc(b1-4)[Neu5Ac(a2-3)]Gal(b1-4)Glc
Method in brief: as §1

[4] = biological target: Neu5Ac(a2-8)Neu5Ac(a2-3)Gal(b1-3)GalNAc(b1-4)[Neu5Ac(a2-8)Neu5Ac(a2-3)]Gal(b1-4)Glc
Method in brief: as §1

[5] = biological target: Neu5Ac(a2-8)Neu5Ac(a2-3)Gal(b1-4)Glc
Method in brief: as §1

[6] = biological target: Neu5Ac(a2-8)Neu5Ac(a2-3)Gal(b1-4)GlcNAc
Method in brief: as §1

[7] = biological target: Neu5Ac(a2-8)Neu5Ac(a2-3)[Gal(b1-3)GalNAc(b1-4)]Gal(b1-4)Glc
Method in brief: as §1

[8] = biological target: Neu5Ac(a2-8)Neu5Ac(a2-3)[GalNAc(b1-4)]Gal(b1-4)Glc
Method in brief: as §1

[9] = biological target: Neu5Ac(a2-8)Neu5Ac(a2-8)Neu5Ac
Method in brief: as §1

[10] = biological target: Neu5Ac(a2-8)Neu5Ac(a2-8)Neu5Ac(a2-3)Gal(b1-4)Glc
Method in brief: as §1

[11] = biological target: Neu5Ac(a2-8)Neu5Ac(a2-8)Neu5Ac(a2-3)[Gal(b1-3)GalNAc(b1-4)]Gal(b1-4)Glc
Method in brief: as §1

[12] = biological target: Neu5Ac(a2-8)Neu5Ac(a2-8)Neu5Ac(a2-3)[GalNAc(b1-4)]Gal(b1-4)Glc
Method in brief: as §1

[13] = biological target: Neu5Ac(a2-8)Neu5Ac(a2-8)Neu5Ac(a2-8)Neu5Ac(a2-3)[GalNAc(b1-4)]Gal(b1-4)Glc
Method in brief: as §1

[14] = biological target: Neu5Ac(a2-8)Neu5Gc(a2-3)Gal(b1-4)GlcNAc
Method in brief: as §1

[15] = biological target: Neu5Ac(b2-6)Gal(b1-4)GlcNAc
Method in brief: as §1

Neu5Ac(b2-6)GalNAc = biological target: Neu5Ac(b2-6)GalNAc
Method in brief: as §1

[16] = biological target: Neu5Ac9Ac(a2-3)Gal(b1-3)GlcNAc
Method in brief: as §1

[17] = biological target: Neu5Ac9Ac(a2-3)Gal(b1-4)GlcNAc
Method in brief: as §1

[18] = biological target: Neu5Ac9Ac(a2-6)Gal(b1-4)GlcNAc
Method in brief: as §1

[19] = biological target: Neu5Gc(a2-3)Gal(b1-3)GlcNAc
Method in brief: as §1

[20] = biological target: Neu5Gc(a2-3)Gal(b1-3)[Fuc(a1-4)]GlcNAc
Method in brief: as §1

Neu5Gc(a2-3)Gal(b1-4)Glc = biological target: Neu5Gc(a2-3)Gal(b1-4)Glc
Method in brief: as §1

[21] = biological target: Neu5Gc(a2-3)Gal(b1-4)GlcNAc
Method in brief: as §1

[22] = biological target: Neu5Gc(a2-3)Gal(b1-4)GlcNAc(b1-3)Gal(b1-4)GlcNAc(b1-2)Man(a1-3)[Neu5Gc(a2-3)Gal(b1-4)GlcNAc(b1-3)Gal(b1-4)GlcNAc(b1-2)Man(a1-6)]Man(b1-4)GlcNAc(b1-4)GlcNAc
Method in brief: as §1

[23] = biological target: Neu5Gc(a2-3)Gal(b1-4)[Fuc(a1-3)]GlcNAc
Method in brief: as §1

[24] = biological target: Neu5Gc(a2-6)Gal(b1-4)GlcNAc
Method in brief: as §1

Neu5Gc(a2-6)GalNAc = biological target: Neu5Gc(a2-6)GalNAc
Method in brief: as §1

[25] = biological target: Neu5Gc(a2-8)Neu5Ac(a2-3)Gal(b1-4)GlcNAc
Method in brief: as §1

[26] = biological target: Neu5Gc(a2-8)Neu5Gc(a2-3)Gal(b1-4)GlcNAc
Method in brief: as §1

[27] = biological target: Neu5Gc(a2-8)Neu5Gc(a2-3)Gal(b1-4)GlcNAc(b1-3)Gal(b1-4)GlcNAc
Method in brief: as §1

[28] = biological target: Neu5Gc(a2-8)Neu5Gc(a2-6)Gal(b1-4)GlcNAc
Method in brief: as §1

[29] = biological target: Neu5Gc(b2-6)Gal(b1-4)GlcNAc
Method in brief: as §1

B1: Epa1to9 (Candida glabrata) (protein)
chain: MGSSHHHHHHSSGLVPRGSHMTSSNDISLASKDPTTFPLGCSPDITTPKKGLSMELYSYDFRKKGSYPCWDAAYLDPNYPRTGYKSHRLLAKVDGVTGNINFYYHATKGCTPQLGHLPASYNYPKPLTMTNFTMLLYGYFRPKVTGFHTFTISADDLLFVNFGAGNAFDCCRRDSSADHFGNYQAYAIWGSKTAKDELTVHLDAGVYYPIRLFYNNRDYHGALSFTFKTESNENTVSDFSEYFFSLDDTEEGCPGLISYD
glycan array binding signal (z-score) [1]: -0.35
glycan array binding signal (z-score) [2]: -0.39
glycan array binding signal (z-score) (Neu5Ac(a2-8)Neu5Ac): -0.538
glycan array binding signal (z-score) [3]: -0.265
glycan array binding signal (z-score) [4]: 0.235
glycan array binding signal (z-score) [5]: -0.346
glycan array binding signal (z-score) [6]: -0.348
glycan array binding signal (z-score) [7]: 1.1
glycan array binding signal (z-score) [8]: -0.393
glycan array binding signal (z-score) [9]: -0.358
glycan array binding signal (z-score) [10]: -0.406
glycan array binding signal (z-score) [11]: -0.306
glycan array binding signal (z-score) [12]: -0.353
glycan array binding signal (z-score) [13]: -0.355
glycan array binding signal (z-score) [14]: -0.342
glycan array binding signal (z-score) [15]: -0.338
glycan array binding signal (z-score) (Neu5Ac(b2-6)GalNAc): -0.346
glycan array binding signal (z-score) [16]: -0.345
glycan array binding signal (z-score) [17]: -0.35
glycan array binding signal (z-score) [18]: -0.264
glycan array binding signal (z-score) [19]: -0.334
glycan array binding signal (z-score) [20]: -0.343
glycan array binding signal (z-score) (Neu5Gc(a2-3)Gal(b1-4)Glc): -0.348
glycan array binding signal (z-score) [21]: -0.346
glycan array binding signal (z-score) [22]: -0.346
glycan array binding signal (z-score) [23]: -0.326
glycan array binding signal (z-score) [24]: -0.291
glycan array binding signal (z-score) (Neu5Gc(a2-6)GalNAc): -0.354
glycan array binding signal (z-score) [25]: -0.338
glycan array binding signal (z-score) [26]: -0.345
glycan array binding signal (z-score) [27]: -0.341
glycan array binding signal (z-score) [28]: -0.293
glycan array binding signal (z-score) [29]: -0.335

From the supplement of paper PMC8728848
